Some of the results follow. The full chains were built here from the parent and the listed change. Inactive controls read about 0.05.
B1: TEV protease; numbered along this chain (parent)
chain: MGESLFKGPRDYNPISSSICHLTNESDGHTTSLYGIGFGPFIITNKHLFRRNNGTLVVQSLHGVFKVKDTTTLQQHLVDGRDMIIIRMPKDFPPFPQKLKFREPQREERICLVTTNFQTKSMSSMVSDTSCTFPSGDGIFWKHWIQTKDGQCGSPLVSTRDGFIVGIHSASNFTNTNNYFTSVPKNFMELLTNQEAQQWVSGWRLNADSVLWGGHKVFMVKPEEPFQPVKEATQL

Variants of: B1
Experiment: raw area under fraction-flipped curve 0-4 h after induction (AUC4h, not background-subtracted), DNA-recorder readout of cleavage of the substrate (dimensionless); higher = more cleavage of the substrate by the protease variant
Conditions: temperature: 34 °C; time window: 0-4 h after rhamnose induction
Method: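 In vivo DNA recorder in E. coli TOP10(DE3) ΔrhaA at 34 °C. Each TEVp single-site mutant (parent TEVp 0) is paired with a single-site variant of the 7-mer TEVs (canonical ENLYFQ|S). The substrate sits between flexible linkers in a Bxb1-sfGFP-TEVs-SsrA fusion, so cleavage stabilises Bxb1 and speeds flipping of a recombination array, read by NGS. The value is the raw area under the fraction-flipped curve over 0-4 h after rhamnose induction (AUC4h), with ≥20 reads per time point. It is not background-subtracted; inactive controls average about 0.047.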
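Note: Bxb1 expression induced with 0.2% (w/v) L-rhamnose at OD600 near 0.5, cultures sampled hourly, flipped fraction per protease–substrate barcode pair counted by paired-end Illumina sequencing.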

Variant | area with substrate ENLYFQA | area with substrate ENLYFQC | area with substrate ENLYFQE | area with substrate ENLYFQG | area with substrate ENLYFQI | area with substrate ENLYFQK | area with substrate ENLYFQL | area with substrate ENLYFQM | area with substrate ENLYFQN | area with substrate ENLYFQP | area with substrate ENLYFQR | area with substrate ENLYFQS | area with substrate ENLYFQT | area with substrate ENLYFQW | area with substrate ENLYFQY | area with substrate ENLYFQD | area with substrate ENLYFQH | area with substrate ENLYFQQ | area with substrate ENLYFQV | area with substrate ENLYFQF
K221I | 0.0856 | 0.103 | 0.0604 | 0.0926 | 0.0508 | 0.0666 | 0.06 | 0.0685 | 0.0542 | 0.0789 | 0.0633 | 0.094 | 0.0549 | 0.062 | 0.05 |  |  |  |  | 
V220P | 0.0813 | 0.11 | 0.0518 | 0.086 |  | 0.063 | 0.061 | 0.0697 | 0.0579 | 0.0549 | 0.0556 | 0.0853 | 0.0657 | 0.0636 |  | 0.0631 | 0.0714 | 0.0659 | 0.0511 | 
Q227I | 0.0993 | 0.127 | 0.0747 | 0.106 | 0.0538 | 0.0684 | 0.0678 | 0.0798 |  |  | 0.0814 | 0.102 |  | 0.0567 |  |  | 0.0713 | 0.0531 |  | 
T233H | 0.14 | 0.103 |  | 0.105 | 0.0799 | 0.0598 | 0.0588 | 0.0994 |  |  | 0.0763 | 0.102 | 0.063 | 0.0553 | 0.0478 |  | 0.0709 | 0.0787 |  | 0.0785
T233G | 0.0796 | 0.1 |  | 0.101 | 0.0586 | 0.0461 | 0.0585 |  |  | 0.0601 | 0.0578 | 0.111 | 0.0672 | 0.073 |  | 0.0733 |  |  | 0.0665 | 
T233K | 0.102 | 0.114 |  | 0.0821 |  | 0.0543 |  |  |  |  | 0.0463 | 0.107 | 0.0644 | 0.0853 | 0.0865 |  | 0.0865 |  |  | 0.0508
K230M | 0.116 | 0.091 |  | 0.0843 | 0.0643 | 0.0722 | 0.0591 | 0.0887 | 0.067 | 0.0692 | 0.0652 | 0.0976 |  | 0.0651 | 0.0721 |  | 0.0657 | 0.0418 | 0.0701 | 
W212K | 0.0778 | 0.0753 | 0.0496 | 0.0702 | 0.0663 | 0.0567 | 0.0556 | 0.0567 | 0.0632 |  | 0.042 | 0.0721 | 0.0639 | 0.0542 | 0.0527 |  | 0.072 |  |  | 
E224F | 0.0847 |  |  | 0.0761 |  | 0.0677 | 0.0638 |  |  |  |  | 0.0886 | 0.0782 | 0.0544 |  |  | 0.0711 |  | 0.0403 | 0.0806
M219E | 0.0858 | 0.0925 |  | 0.0928 | 0.0512 | 0.055 | 0.0523 | 0.0644 | 0.0589 | 0.0641 | 0.0653 | 0.0895 |  | 0.0557 |  | 0.0581 | 0.0488 |  | 0.0493 | 
M219V | 0.0984 | 0.167 |  | 0.18 | 0.0639 | 0.0578 | 0.0634 | 0.0774 |  |  | 0.0617 | 0.107 |  |  | 0.071 | 0.0674 | 0.0792 | 0.0661 |  | 
G202A | 0.0628 | 0.0727 |  |  | 0.0566 | 0.0584 |  | 0.0851 | 0.069 | 0.0578 | 0.0611 | 0.0801 | 0.0632 | 0.0703 | 0.0695 |  | 0.0631 | 0.0706 | 0.05 | 
N206H | 0.109 | 0.0639 |  |  | 0.0629 | 0.0637 | 0.0374 | 0.0909 | 0.0716 |  | 0.0574 | 0.0911 | 0.0568 | 0.0654 |  | 0.0533 |  | 0.0692 | 0.0695 | 
N206G | 0.0983 | 0.109 |  | 0.097 | 0.059 | 0.0571 | 0.0623 |  | 0.0669 |  | 0.0541 | 0.1 | 0.0439 | 0.0788 | 0.0645 | 0.0464 |  |  |  | 
Q197G | 0.0798 | 0.101 |  |  | 0.0657 | 0.0644 |  | 0.0813 |  | 0.0454 |  | 0.091 | 0.0786 |  | 0.0774 | 0.069 | 0.0678 |  | 0.0404 | 0.0651
P225F | 0.0919 | 0.088 |  |  | 0.0549 | 0.069 |  | 0.0818 | 0.0686 | 0.057 | 0.0678 | 0.0892 | 0.07 |  | 0.0485 |  |  |  | 0.036 | 
P222C | 0.0838 | 0.111 |  | 0.0853 | 0.0738 |  | 0.0638 | 0.0561 | 0.0699 | 0.0567 | 0.0275 | 0.0946 |  | 0.0612 | 0.0665 | 0.0595 | 0.0692 | 0.0642 | 0.0588 | 0.0626
W203Y | 0.132 | 0.0617 |  | 0.0709 | 0.0566 | 0.0673 |  |  | 0.0725 |  |  | 0.0846 |  | 0.0617 | 0.0601 |  | 0.0737 |  |  | 0.0508
Q198I | 0.0841 | 0.124 |  | 0.0793 | 0.0577 | 0.056 | 0.0512 | 0.087 | 0.0828 | 0.0479 |  | 0.0946 | 0.062 | 0.0762 |  |  |  |  | 0.0904 | 0.0748
E223T | 0.0977 |  |  | 0.0985 |  | 0.0647 | 0.0589 | 0.0731 |  | 0.0852 | 0.0602 | 0.0976 | 0.0601 | 0.0784 | 0.069 | 0.0814 |  |  | 0.0553 | 0.0448
V217Q | 0.0585 |  |  | 0.0566 | 0.0426 | 0.0523 | 0.0617 | 0.0671 | 0.0725 |  | 0.0496 | 0.0589 |  | 0.0568 | 0.0651 |  | 0.0711 | 0.0719 | 0.0466 | 0.0548
S201K | 0.102 |  |  | 0.101 |  |  | 0.0594 | 0.0978 | 0.0737 | 0.049 | 0.0775 | 0.104 |  |  | 0.0704 |  |  |  | 0.0691 | 
H215W | 0.0635 | 0.0438 | 0.0508 | 0.06 | 0.0689 |  | 0.0632 | 0.0639 | 0.0438 | 0.0522 | 0.0441 | 0.0612 | 0.0521 | 0.0597 | 0.0556 | 0.061 | 0.0625 | 0.0542 |  | 0.0583
H215D | 0.0707 | 0.0602 |  | 0.0656 | 0.0532 | 0.0438 | 0.0635 | 0.0644 | 0.0632 |  | 0.0634 | 0.0603 |  | 0.0504 | 0.0807 | 0.063 | 0.0797 |  |  | 
R204T | 0.119 | 0.159 | 0.0768 | 0.0969 | 0.0596 | 0.0632 | 0.0586 | 0.103 | 0.104 |  | 0.0682 | 0.111 | 0.065 | 0.073 | 0.0759 | 0.0827 | 0.111 |  | 0.0613 | 
